Experimental data as given in PubChem BioAssay AID485364 (National Center for Advancing Translational Sciences (NCATS), 2010).
The whole screen tested about 360,000 compounds, of which about 11,000 (3.1%) were called active. The inconclusive results got no clear call from the source; some entries with a clear call stand among them for comparison. Calls follow the shape of the dose curve; as a rule, active = well fitted inhibition curve with a large enough effect; inconclusive = small, poorly fitted or top-dose-only effect; inactive = no such curve, though single readings can be large or run the other way. No potency is given beside an inconclusive call; the fits are too rough.

biological target: Schistosoma mansoni thioredoxin glutathione reductase (TGR) (UniProt Q962Y6); experiment: qHTS Assay for the Inhibitors of Schistosoma Mansoni Peroxiredoxins; conditions: purified TGR, DTNB reduction, TNB absorbance 405 nm; activity change, negative = inhibition: at 114 µM (top of the series); also: nearly all actives have a fitted effect of over 60% in size
Summary of the method: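 First, TGR (20 nM dispensed) and NADPH were mixed with compound. Second, a 15 min room-temperature incubation followed. Third, further NADPH and then DTNB were added to start the reaction. Finally, TNB absorbance was monitored kinetically.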
% is scaled to controls: 0 for no effect and ±100 for the full control effect; potency is read from the fitted curve at half-maximal effect; tags tell the direction and shape of the fitted curve.

Structure (SMILES)	Potency	activity change, negative = inhibition
Cc1cccc(NC(=O)c2cc(-c3ccco3)nc3ccccc23)n1	active: 20 µM	–
COc1cccc(OC)c1C(=O)NCCSC1CCCCC1	inconclusive [inhibitor, single point]	–
COc1cccc(C(c2nnnn2C(C)(C)C)N2CCN(C3CCCCC3)CC2)c1OC (centres undefined)	inconclusive [inhibitor, single point]	–
O=C(N/N=C/c1cccn1-c1ccc([N+](=O)[O-])cc1)c1cccnc1	–	inactive: -1.34%
Cn1c(/C=C/c2ccc([N+](=O)[O-])o2)nc2ccccc2c1=O	inconclusive [inhibitor, full curve]	–
Cc1ccc(NC(=O)CN(C)C(=O)C2COc3ccccc3O2)cc1 (centres undefined)	inconclusive [inhibitor, partial curve]	–
C=CCn1c2ccccc2c(=O)c2cc(C#Cc3ccsc3)ccc21	inconclusive [inhibitor, partial curve, poor fit]	–
CCCCC[C@H](O)/C=C/C1=C(CCCCCCC(=O)O)C(=O)CC1	inconclusive [inhibitor, partial curve]	–
CN(C(=O)c1cc2n(n1)C(C(F)(F)F)CC(c1ccco1)N2)c1ccccc1 (centres undefined)	inconclusive [inhibitor, single point]	–
CCn1c(SCC(=O)Nc2ccc(N3CCOCC3)cc2)nnc1-c1ccco1	inconclusive [inhibitor, partial curve]	–
COC(=O)c1ccc(NC(=O)CSc2ncc3c(n2)-c2cc(Cl)ccc2N(Cc2ccccc2)S3(=O)=O)cc1	–	inactive: -1.46%
CCOc1ccc(CCNC(=O)c2ccc(CS(=O)Cc3cccc(Cl)c3)o2)cc1 (centres undefined)	inconclusive [inhibitor, full curve]	–
COc1ccccc1OCc1cc(-c2ccccc2)no1	–	inactive: -3.14%
COc1cccc(-n2c(C)c3c(OC)cccc(=O)c3c2C)c1	active: 22.4 µM	–
CCCC1C(c2ccco2)NC(c2ccco2)CC1(C)O (centres undefined)	inconclusive [inhibitor, partial curve]	–
O=C(Nc1ccccc1N1CCN(c2ccc(F)cc2)CC1)C12CC3CC(CC(C3)C1)C2	inconclusive [inhibitor, single point]	–
Cc1ccccc1Cc1c(C)nc2nc(SCC(=O)NCCc3ccc(Cl)cc3)nn2c1C	inconclusive [inhibitor, single point]	–
CSC(=CC(=O)c1ccc(F)cc1)SC	inconclusive [inhibitor, partial curve]	–
Cc1ccc(C)c(N2C(=O)CC(N3CCN(Cc4ccc5c(c4)OCO5)CC3)C2=O)c1 (centres undefined)	inconclusive [inhibitor, partial curve]	–
